Data taken from PubChem BioAssay AID360 (National Center for Advancing Translational Sciences (NCATS), 2006).
Among all 48,000 compounds or so, about 550 (1.1%) were called active. Not shown: some 4% with an inconclusive outcome. Rule as the data show it: active = potency below about 15 µM; inconclusive = mostly about 16 µM to 33 µM; inactive = weaker than that. Some of the results follow.
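Also: the screen sought inhibitors.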
Potency is read from the fitted curve at half-maximal effect.

What follows are compounds tested against Lysosomal acid glucosylceramidase (Homo sapiens) (UniProt P04062) (assay: Glucocerebrosidase). Settings: purified enzyme, resorufin glucoside fluorescence (screen aimed at inhibitors), 20 min.
UniProt P04062, sequence (P04062 whole entry, looked up): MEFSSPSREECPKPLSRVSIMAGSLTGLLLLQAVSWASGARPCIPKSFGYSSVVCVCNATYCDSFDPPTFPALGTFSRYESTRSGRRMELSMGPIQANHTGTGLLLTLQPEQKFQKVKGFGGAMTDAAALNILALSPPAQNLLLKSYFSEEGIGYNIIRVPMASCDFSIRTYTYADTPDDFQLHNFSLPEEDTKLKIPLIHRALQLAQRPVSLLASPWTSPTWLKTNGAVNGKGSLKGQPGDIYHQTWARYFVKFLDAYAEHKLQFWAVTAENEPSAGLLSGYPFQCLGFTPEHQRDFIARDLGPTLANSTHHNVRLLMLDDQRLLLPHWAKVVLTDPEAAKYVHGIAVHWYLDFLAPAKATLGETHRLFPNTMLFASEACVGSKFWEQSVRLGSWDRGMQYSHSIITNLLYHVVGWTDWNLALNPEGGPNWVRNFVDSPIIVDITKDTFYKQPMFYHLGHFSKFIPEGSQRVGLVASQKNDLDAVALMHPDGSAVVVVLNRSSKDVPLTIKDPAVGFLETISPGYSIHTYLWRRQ
Source text: NCGC Assay Overview: Beta-glucocerebrosidase catalyzes the hydrolysis of beta-glucocerebroside to glucose and ceramide. The inherited deficiency of beta-glucocerebrosidase results in Gaucher disease, which is characterized by a wide variety of symptoms including hepatosplenomegaly, anemia, thrombocytopenia, bony lesions and bone marrow infiltration with characteristic storage cells, known as Gaucher cells. There are also forms of the disorder affecting the central nervous system. Patients with the same genotypes can manifest with diverse clinical presentations and it is believed that improper folding and trafficking of beta-glucocerbrosidase may contribute to the phenotypes observed. Low molecular weight molecules, acting as chaperones, may potentially restore trafficking of misfolded beta-glucocerebrosidase from the endoplasmic reticulum to the lysosomes, thereby enhancing functional lysosomal beta-glucocerebrosidase activity. Using normal beta-glucocerebrosidase, an assay was developed to screen for small molecule inhibitors that could potentially act as molecular chaperones on the mutant forms [developed with NIH investigator Dr. Ellen Sidransky's laboratory]. Two pro-fluorescent substrates were chosen for two screens against a small molecule library. One beta-glucocerebrosidase assay used Resorufin beta-D-Glucopyranoside (Marker Gene Technology Inc.), generating a red fluorescent product. The second assay used Fluorescein di-beta-D-Glucopyranoside, generating a blue fluorescent product. […] The IC50 values of Conduritol B Epoxide, a known glucocerebrosidase inhibitor, were determined to be 87.5 uM and 117 uM, respectively. The use of two difference pro-fluorescent substrates in the screens helped to eliminate false positives. All compounds were screened in a titration series resulting in AC50s (e.g., IC50s or EC50s).
NCGC Assay Protocol Summary: Both enzyme and substrate were diluted in buffer composed of 50mM citric acid/KH2PO4, 10mM sodium taurocholate and 0.01% tween-20 at pH 5.9. The final concentration of the enzyme was 0.2 nM in both assays. The compound library was titrated in 7 to 15 concentrations for the primary screens with a final concentration ranging from 0.6 nM to 50 uM. This particular assay protocol is for the "red" substrate, and it was performed in 1536-well plate format as follows: Red fluorescence substrate assay: 2 uL enzyme 23 nL compound 1 uL substrate (final concentration of 30 uM) Incubate at room temperature (RT) for 20 minutes Read the plate in Viewlux plate reader (Ex=548(7) and Em=600(10)).
In the case of CCN1C(=O)C2C(c3cccc(F)c3)NC(C)(C(=O)OC)C2C1=O (configuration not stated), the Potency is reported as inactive: > 76.9 µM. In the case of Cc1occc1-c1nnc(SCC(=O)Nc2ccc3c(c2)OCO3)n1CC1CCCO1 (configuration not stated), the Potency is reported as inactive: > 76.9 µM. CCOC(=O)c1cc(C#N)c(SCc2ccc(C#N)cc2)nc1C was tested, and the Potency was inactive: > 76.9 µM. In the case of O=C(Nc1c2c(nn1-c1ccc(F)cc1)CS(=O)C2)C12CC3CC(CC(C3)C1)C2 (configuration not stated), the Potency is reported as inactive: > 76.9 µM. Cc1ccc(CN2CC(C(=O)Nc3ccc4c(C)cc(=O)oc4c3)CC2=O)cc1 (configuration not stated) was tested, and the Potency was inactive: > 76.9 µM. In the case of Cc1cc(NC(=O)C2CCCC2)nc2c1c(=O)oc1ccccc12, the Potency is reported as inactive: > 76.9 µM. In the case of CCCNS(=O)(=O)c1ccc(OCC(=O)NCCCOC)cc1, the Potency is reported as inactive: > 76.9 µM. O=C(CSc1nc2c(cnn2-c2ccccc2)c(=O)[nH]1)c1ccc(Cl)cc1 was tested, and the Potency was inactive: > 76.9 µM. For O=C(O)c1cc(Cl)c2ccccc2c1O, the Potency was inactive: > 76.9 µM. In the case of COc1cc(NC(=O)c2cc(-n3cnnc3)ccc2Cl)cc(OC)c1, the Potency is reported as inactive: > 76.9 µM. With O=C(CCNS(=O)(=O)c1ccc(Cl)cc1)NCc1ccccn1 the Potency was inactive: > 76.9 µM. In the case of CCCc1ccc(C(=O)N2CCN(c3ccccc3OCC)CC2)cc1, the Potency is reported as “inactive”. COc1ccc(CCNC(=O)C2CCN(Cc3nc(-c4ccc(Cl)cc4)oc3C)CC2)cc1OC was tested, and the Potency was inactive: > 76.9 µM. With FC(F)Oc1ccc(-c2csc(Cc3nnc4n3CCCCC4)n2)cc1 the Potency was inactive: > 76.9 µM. In the case of C=CCn1c(=O)c2c(nc3n2CCS3)n(C)c1=O, the Potency is reported as inactive: > 76.9 µM. For Cc1cc(C)n(C(=O)c2cc3sccc3[nH]2)n1, the Potency was inactive: > 76.9 µM. In the case of Cn1c(=O)c2c(nc(CN3CCOCC3)n2CCCc2ccccc2)n(C)c1=O, the Potency is reported as inactive: > 76.9 µM. For O=C(CC1NC(=O)NC1=O)Nc1cccc2ccccc12 (configuration not stated), the Potency was inactive: > 76.9 µM. For COc1ccccc1NC(=O)CSc1nnc(-c2ccccn2)n1Cc1ccco1, the Potency was inactive: > 76.9 µM. For Cc1nnc(SCC(=O)N2CCN(S(=O)(=O)c3ccc(Cl)cc3)CC2)[nH]c1=O, the Potency was inactive: > 76.9 µM. With COc1ccc(C)cc1-n1nnnc1SCc1csc(C)n1 the Potency was inactive: > 76.9 µM. With O=C(NCCC1=CCCCC1)C1CCN(S(=O)(=O)c2cccc3nsnc23)CC1 the Potency was inactive: > 76.9 µM. With Cc1cc(C(F)F)n2nc(C(=O)Nc3ccccc3Br)nc2n1 the Potency was inactive: > 76.9 µM. With CCOCCCNS(=O)(=O)c1ccc2c(c1)CCN2C(=O)CC the Potency was inactive: > 76.9 µM. In the case of O=C(CN1CCOCC1)Nc1cccc(Br)c1, the Potency is reported as inactive: > 76.9 µM. COC(=O)c1ccccc1NC(=O)CSc1nccn1C was tested, and the Potency was inactive: > 76.9 µM. With CC(=O)c1cc2c(cc1NC(=O)CN1CCN(c3ccc(F)cc3)CC1)OCO2 the Potency was inactive: > 76.9 µM. For CCOC(=O)NC(CC(=O)O)c1ccc(OCC)cc1 (configuration not stated), the Potency was inactive: > 76.9 µM. For CN(C)c1ccc(C2OC(=O)C3(CCCC3)C(=O)C2(C)C)cc1 (configuration not stated), the Potency was inactive: > 76.9 µM. c1nnc2c3c4c(sc3ncn12)CCCC4 was tested, and the Potency was inactive: > 76.9 µM. In the case of COc1ccccc1NC(=O)CC1Nc2ccccc2NC1=O (configuration not stated), the Potency is reported as inactive: > 76.9 µM. In the case of O=P1(O)C=C(c2ccccc2)OC(c2ccccc2)=C1, the Potency is reported as inactive: > 76.9 µM. With C=CCN1C(=O)CSc2ccc(C(=O)NCc3ccco3)cc21 the Potency was inactive: > 76.9 µM. In the case of O=C(CCn1c(=O)c2sccc2n(Cc2cc(=O)n3ccccc3n2)c1=O)NCc1ccco1, the Potency is reported as inactive: > 76.9 µM. O=C(Nn1cnnc1)c1ccc(F)c(S(=O)(=O)N2CCCCC2)c1 was tested, and the Potency was inactive: > 76.9 µM. In the case of CN(C)c1ccc(CN(C(=O)COc2ccccc2)C2CCS(=O)(=O)C2)cc1 (configuration not stated), the Potency is reported as inactive: > 76.9 µM. For O=c1cc(NC2CCCCCC2)[nH]c(=O)[nH]1, the Potency was inactive: > 76.9 µM. In the case of Cc1ccc(-n2ncc3c(Nc4c(C)n(C)n(-c5ccccc5)c4=O)ncnc32)c(C)c1, the Potency is reported as inactive: > 76.9 µM. For c1csc(Cc2nc3ccccc3[nH]2)c1, the Potency was inactive: > 76.9 µM. In the case of CC(NC(=O)c1ccccc1NS(C)(=O)=O)c1ccccc1 (configuration not stated), the Potency is reported as inactive: > 76.9 µM. CN(Cc1nc(-c2ccncc2)no1)S(=O)(=O)c1ccc(Br)cc1 was tested, and the Potency was inactive: > 76.9 µM. Cc1ccc(OCCCC(=O)Nc2ccc(N3CCOCC3)cc2)c(C)c1 was tested, and the Potency was inactive: > 76.9 µM. With Cc1cc(C)n(CCCNC(=O)c2ccc3c(c2)NC(=O)CS3)n1 the Potency was inactive: > 76.9 µM. With COc1ccc(N(C(C)=O)S(=O)(=O)c2cc(OC)ccc2OC)cc1 the Potency was inactive: > 76.9 µM. For CCOC(=O)C(C#N)c1ccccn1 (configuration not stated), the Potency was inactive: > 76.9 µM. With Cc1nn(CC(=O)Nc2ccc(C(=O)N3CCCCC3)cc2)c(=O)c2ccccc12 the Potency was inactive: > 76.9 µM. With CC1(C(=O)Nc2nccs2)Cc2ccccc2C(=O)O1 (configuration not stated) the Potency was inactive: > 76.9 µM. In the case of O=C(O)C1OC(C(=O)O)C2C1C(F)(F)C2(F)F (configuration not stated), the Potency is reported as inactive: > 76.9 µM. In the case of C=CCn1c(N)c(C(=O)NCC2CCCO2)sc1=S (configuration not stated), the Potency is reported as inactive: > 76.9 µM. For COc1cccc(-c2nc(CS(=O)CC(=O)NCCCOC(C)C)c(C)o2)c1 (configuration not stated), the Potency was inactive: > 76.9 µM. For c1ccc(OCCSc2nnnn2C2CCCCC2)cc1, the Potency was inactive: > 76.9 µM. With O=c1c2c3c(sc2n2cnnc2n1CCc1ccccc1)CCCC3 the Potency was inactive: > 76.9 µM. In the case of CCCc1cc(Nc2cccc(OCC)c2)n2ncnc2n1, the Potency is reported as inactive: > 76.9 µM. COc1ccc(C)cc1NC(=O)C1CCCN(S(=O)(=O)c2cccc3nonc23)C1 (configuration not stated) was tested, and the Potency was inactive: > 76.9 µM. In the case of Cc1nnc(SCC(=O)NCc2ccc(Cl)cc2)[nH]c1=O, the Potency is reported as inactive: > 76.9 µM. In the case of CCCCNC(=O)c1c[nH]c2ccc(S(=O)(=O)Nc3ccc(OCC)cc3)cc2c1=O, the Potency is reported as inactive: > 76.9 µM. In the case of C=CCNC(=O)CNS(=O)(=O)c1ccc(F)cc1, the Potency is reported as inactive: > 76.9 µM. With Cc1ccc(C2CC(=O)c3cnc(N4CC(C)CC(C)C4)nc3C2)cc1 (configuration not stated) the Potency was inactive: > 76.9 µM. In the case of Cc1noc(C)c1S(=O)(=O)N1CCCC(C(=O)NCCC2=CCCCC2)C1 (configuration not stated), the Potency is reported as inactive: > 76.9 µM. For COc1cc(OC)cc(C(=O)Nc2cccc(N3CCCC3)c2)c1, the Potency was inactive: > 76.9 µM. In the case of CCCN1C(=O)C(O)(CC(=O)c2cccc(OC)c2)c2ccccc21 (configuration not stated), the Potency is reported as inactive: > 76.9 µM. For COC(=O)C(C(=O)Nc1ncccn1)C1CCCCCC1 (configuration not stated), the Potency was inactive: > 76.9 µM. In the case of CCCNC(=O)c1cc(-c2ccc(OC)cc2)on1, the Potency is reported as inactive: > 76.9 µM. For O=[N+]1C2=C(CCCC2)N([O-])C12CCCC2, the Potency was inactive: > 76.9 µM. With O=C(c1ccco1)N1CCN(C(=O)c2sccc2-c2ccccc2)CC1 the Potency was inactive: > 76.9 µM. Cc1cccc2cc(CN(CCCO)C(=O)Nc3ccc(Cl)cc3)c(=O)[nH]c12 was tested, and the Potency was inactive: > 76.9 µM. In the case of Fc1cccc(Cl)c1Cn1nnc2c(-n3ccnc3)ncnc21, the Potency is reported as inactive: > 76.9 µM. With CCC(C)NS(=O)(=O)c1ccc(NS(C)(=O)=O)cc1 (configuration not stated) the Potency was inactive: > 76.9 µM. With O=C1c2ccc(Oc3ccc4c(c3)C(=O)N(CCCCO)C4=O)cc2C(=O)N1CCCCO the Potency was inactive: > 76.9 µM. With CCOC(=O)NC1(C(F)(F)F)NC(=O)N(Cc2ccco2)C1=O (configuration not stated) the Potency was inactive: > 76.9 µM. With N#CCSc1nnc(C2CCCCC2)n1Cc1ccccc1 the Potency was inactive: > 76.9 µM. With Nc1nonc1-c1nc2ccccc2n1CC(=O)N1CCN(c2ccc(F)cc2)CC1 the Potency was inactive: > 76.9 µM. CCn1c(SCC(=O)Nc2ccc(S(=O)(=O)Nc3ccccn3)cc2)nnc1-c1ccncc1 was tested, and the Potency was inactive: > 76.9 µM. In the case of COCCn1c(C)cc(C(=O)COC(=O)CCN2C(=O)c3ccccc3C2=O)c1C, the Potency is reported as inactive: > 76.9 µM. CCN(CC)CCCN(Cc1cc2cc3c(cc2[nH]c1=O)OCCO3)C(=O)Nc1ccccc1 was tested, and the Potency was inactive: > 15.4 µM. With O=C(CC1(O)C(=O)Nc2ccccc21)c1cccnc1 (configuration not stated) the Potency was inactive: > 76.9 µM. For COc1ccc(C(CC(=O)O)NC(=O)COc2ccccc2)cc1 (configuration not stated), the Potency was inactive: > 76.9 µM. With CN1CC(=O)N(CC(=O)NCCc2ccc(F)cc2)c2ccccc2C1=O the Potency was inactive: > 76.9 µM. With Fc1ccc(C2=Nn3c(Cc4ccccc4)nnc3SC2)cc1 the Potency was inactive: > 76.9 µM. With N#Cc1c(N)oc(-c2ccc3c(c2)OCO3)c1-c1ccc2c(c1)OCO2 the Potency was inactive: > 76.9 µM. For CC1(C)Cc2ccccc2C(=O)N1, the Potency was inactive: > 76.9 µM. O=c1cc(O)nc(SCc2ccccc2)[nH]1 was tested, and the Potency was inactive: > 76.9 µM. For O=C(NCCc1ccccc1)C1CCCN(S(=O)(=O)c2cccc3nsnc23)C1 (configuration not stated), the Potency was inactive: > 76.9 µM. For CCCS(=O)(=O)N1CCC(C(=O)NCCc2ccccc2)CC1, the Potency was inactive: > 76.9 µM. For COc1ccc(Cl)cc1N1CC(C(=O)Nc2nccs2)CC1=O (configuration not stated), the Potency was inactive: > 76.9 µM. CC(C)(C)C(=O)CCN1C(=O)C2(OCCO2)c2ccccc21 was tested, and the Potency was inactive: > 76.9 µM. Cc1cc(NS(=O)(=O)c2ccc(NC(=O)CCCOc3ccc(Cl)cc3)cc2)no1 was tested, and the Potency was inactive: > 76.9 µM. For COC(=O)C1=C(C(C)=O)C(c2ccc(C(=O)OC)cc2)n2nnnc2N1 (configuration not stated), the Potency was inactive: > 76.9 µM. With O=C(O)Cn1cnc2scc(-c3cccs3)c2c1=O the Potency was inactive: > 76.9 µM. Cc1cc(C)n(Cc2ccc(C(=O)O)o2)n1 was tested, and the Potency was inactive: > 76.9 µM. For CC(=O)Nc1ccc(S(=O)(=O)Nc2ccc(NC(=O)c3ccco3)cc2)cc1, the Potency was active: 10.8 µM. For O=c1[nH]c(=O)n(C2CCCO2)cc1Br (configuration not stated), the Potency was inactive: > 76.9 µM.
